According to the supplement of paper PMC9446081:
Screen size: about 39,000 compounds; about 220 (0.56%) showed activity. The list shows a part of the results.

What follows are molecules tested on Escherichia coli K-12 BW25113 (assay: relative growth (OD600 normalised to plate interquartile mean) (fraction); higher = less growth inhibition, active = 0.2 or less). Details: 50 µM; LB; incubation time: overnight (16-24 h).
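Further: static incubation at 37 °C against the wild-type strain, values averaged over two biological replicates.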

SMILES	relative growth
C[C@@H](O)[C@H]1C(=O)N2C(C(=O)O)=C(SCCNC=N)C[C@H]12	inactive: 1.01
C[C@H](CO)N1C[C@H](C)[C@@H](CN(C)Cc2ccc(Oc3ccccc3)cc2)Oc2ccc(NS(=O)(=O)c3cccs3)cc2C1=O	inactive: 1.01
C[C@@H]1CN([C@H](C)CO)C(=O)c2cccc(NC(=O)C3CCOCC3)c2O[C@H]1CN(C)Cc1ccccc1	inactive: 1
Cc1cnc(N)c(C)n1	inactive: 1.02
NCC[C@H]1CC[C@@H](NC(=O)C2CC2)[C@@H](CO)O1	inactive: 1
C[C@@H]1CCCCO[C@H](CN(C)S(=O)(=O)c2ccccc2)[C@@H](C)CN([C@@H](C)CO)C(=O)c2cc(NS(C)(=O)=O)ccc2O1	inactive: 1.01
C[C@@H]1CCCCO[C@H](CN(C)Cc2ccc(Cl)c(Cl)c2)[C@@H](C)CN([C@H](C)CO)C(=O)c2cc(NC(=O)Nc3cccc4ccccc34)ccc2O1	inactive: 0.971
C[C@@H]1CN([C@@H](C)CO)C(=O)c2c(c3ccccc3n2C)-c2ccccc2CO[C@@H]1CN(C)Cc1ccc(-c2ccccc2)cc1	inactive: 0.998
C[C@H]1CN([C@@H](C)CO)C(=O)c2cc(NC(=O)Nc3cccc4ccccc34)ccc2O[C@@H]1CN(C)CC1CCCCC1	inactive: 0.999
COCCOC(=O)N1C(=O)[C@@]2(c3cc(C#CCC(C(=O)OC)C(=O)OC)ccc31)[C@H](c1ccc(OCCO)cc1)N1[C@H](c3ccccc3)[C@H](c3ccccc3)OC(=O)[C@H]1[C@@H]2C(=O)N1CCCCCCC1	inactive: 1.04
CC(C)NC(=O)N(C)C[C@H]1Oc2c(NC(=O)C3CCCCC3)cccc2C(=O)N([C@H](C)CO)C[C@H]1C	inactive: 1.01
Cc1noc(C)c1S(=O)(=O)Nc1ccc2c(c1)CC(=O)N([C@@H](C)CO)C[C@H](C)[C@H](CN(C)C(=O)Nc1ccc3c(c1)OCO3)O2	inactive: 1
CC(C)COc1c[nH]c(CO)cc1=O	inactive: 0.961
Cc1noc(C)c1S(=O)(=O)Nc1ccc2c(c1)C(=O)N([C@H](C)CO)C[C@H](C)[C@@H](CN(C)Cc1ccncc1)O2	inactive: 0.922
C[C@@H]1CCCCO[C@H](CN(C)C(=O)Nc2cccc3ccccc23)[C@H](C)CN([C@@H](C)CO)C(=O)c2cc(NC(=O)Nc3ccc4c(c3)OCO4)ccc2O1	inactive: 1
Cc1noc(C)c1NC(=O)Nc1ccc2c(c1)C(=O)N([C@@H](C)CO)C[C@H](C)[C@@H](CN(C)S(=O)(=O)c1cccs1)OCCCC[C@H](C)O2	inactive: 0.989
C[C@H]1CNC(=O)[C@@H](CC(=O)N(CCOC(=O)NCCCCCC(=O)NO)Cc2ccccc2)C/C=C/CC[C@H](NC(=O)OC(C)(C)C)C(=O)O1	inactive: 0.993
C[C@@H]1CN([C@H](C)CO)C(=O)c2cccc(NS(=O)(=O)c3ccc(Cl)cc3)c2O[C@H]1CN(C)S(=O)(=O)c1cn(C)cn1	inactive: 0.98
Cc1ccc(S(=O)(=O)N(C)C[C@H]2OCCCC[C@@H](C)Oc3ccc(NC(=O)Nc4ccc(F)cc4)cc3C(=O)N([C@@H](C)CO)C[C@@H]2C)cc1	inactive: 1.03
Cc1noc(C)c1S(=O)(=O)N(C)C[C@@H]1OCCCC[C@@H](C)Oc2ccc(NC(=O)Nc3ccc(F)cc3)cc2C(=O)N([C@@H](C)CO)C[C@H]1C	inactive: 0.997
CN(C)S(=O)(=O)N(C)c1ccccc1	inactive: 1.01
COc1ccc(S(=O)(=O)Nc2ccc3c(c2)C(=O)N([C@H](C)CO)C[C@@H](C)[C@H](CN(C)CC2CCCCC2)OCCCC[C@@H](C)O3)cc1	inactive: 1

SMILES	relative growth
C=CC[C@@H](CC(=O)N(CCO)Cc1ccccc1)C(=O)NC[C@@H](OC(=O)[C@@H](CC=C)Cc1ccc(F)cc1)c1ccccc1	inactive: 1.08
Cc1ccc(-c2ccc3c(c2)O[C@@H](CN(C)C(=O)NC(C)C)[C@H](C)CN([C@H](C)CO)S3(=O)=O)cc1	inactive: 1.01
O=S(=O)(NCCCCN(C/C=C/c1ccc(F)cc1)C/C=C/c1ccc(F)cc1)c1cccc2cnccc12	inactive: 1.02
Cc1cc(SC(=O)N/C=C/c2ccco2)c(C)cc1Cl	inactive: 0.893
C[C@@H]1CN([C@@H](C)CO)C(=O)Cc2cc(NS(C)(=O)=O)ccc2O[C@H]1CN(C)C	inactive: 0.985
Cl.Nc1ncnc(Nc2ccc(Cl)cc2)n1	inactive: 1.03
C[C@@H]1CCCCO[C@@H](CN(C)C(=O)c2ccccc2)[C@H](C)CN([C@H](C)CO)C(=O)c2cc(NS(=O)(=O)c3ccc(Cl)cc3)ccc2O1	inactive: 1.03
C[C@@H]1CN([C@@H](C)CO)C(=O)c2cccc(NC(=O)Nc3cccc4ccccc34)c2O[C@H]1CN(C)S(=O)(=O)c1cccc(F)c1	inactive: 0.946
COCc1cn(CC[C@H]2CC[C@@H](NC(=O)CCN3CCCCC3)[C@@H](CO)O2)nn1	inactive: 0.989
Cc1noc(C)c1S(=O)(=O)Nc1cccc2c1O[C@@H](CN(C)Cc1ccncc1)[C@@H](C)CN([C@H](C)CO)C2=O	inactive: 0.941
C[C@@H](Nc1nc(=O)cc(F)[nH]1)C(=O)O	inactive: 0.995
O=C(O)C1CN(C(=O)c2cnccn2)C1	inactive: 1.03
CC1CN(c2c(F)c(F)c3c(=O)c(C(=O)O)cn(C4CC4)c3c2F)CC(C)N1 (stereo not given)	active: 0.0486
C[C@H]1CN([C@@H](C)CO)C(=O)Cc2cc(NC(=O)Nc3ccc(F)cc3)ccc2O[C@@H]1CN(C)C(=O)Nc1ccc(C(F)(F)F)cc1	inactive: 1
C[C@@H]1CCCCO[C@@H](CN(C)C(=O)Cc2ccccc2)[C@@H](C)CN([C@H](C)CO)C(=O)c2cc(NC(=O)Nc3ccc(F)cc3)ccc2O1	inactive: 1.01
CO[C@@H]1CN(C)C(=O)c2ccc(NC(=O)C3CCOCC3)cc2OC[C@@H](C)N(C(=O)Nc2ccc(C(F)(F)F)cc2)C[C@H]1C	inactive: 0.855
C[C@@H]1CCCCO[C@H](CN(C)C(=O)Nc2cccc3ccccc23)[C@@H](C)CN([C@H](C)CO)C(=O)c2cc(NC(=O)Nc3ccccc3)ccc2O1	inactive: 1.02
C[C@H](CO)N1C[C@H](C)[C@H](CN(C)Cc2ccc(C(F)(F)F)cc2)Oc2ccc(NC(=O)Cn3cnnn3)cc2C1=O	inactive: 1.01
CCS(=O)(=O)NCC[C@@H]1CC[C@H](NS(=O)(=O)c2ccccc2C)[C@H](CO)O1	inactive: 0.98
CCN1CCCC1=O	inactive: 0.999
C[C@H]1CN([C@@H](C)CO)S(=O)(=O)c2ccc(C#Cc3ccccc3)cc2O[C@@H]1CN(C)C(=O)c1ccccn1	inactive: 1.01
COc1cc2c(cc1OC)Cc1cc(OC)c(OC)cc1Cc1cc(OC)c(OC)cc1C2	inactive: 0.875

SMILES	relative growth
CC(C)NC(=O)N(C)C[C@H]1OCc2cnnn2CCCC(=O)N([C@H](C)CO)C[C@@H]1C	inactive: 1
C[C@@H]1CCCCO[C@H](CN(C)S(=O)(=O)c2ccccc2)[C@H](C)CN([C@@H](C)CO)C(=O)c2cc(NC(=O)Nc3ccc4c(c3)OCO4)ccc2O1	inactive: 1.02
COc1cccc(S(=O)(=O)N(C)C[C@@H]2Oc3cc(Br)ccc3S(=O)(=O)N([C@@H](C)CO)C[C@@H]2C)c1	inactive: 1.01
C[C@@H]1CCCCO[C@H](CN(C)CC2CCCCC2)[C@H](C)CN([C@H](C)CO)C(=O)c2cc(NC(=O)c3ccncc3)ccc2O1	inactive: 0.963
COCC(=O)N1C[C@@H](C)[C@H](OC)CN(C)C(=O)c2cc(NC(=O)c3ccc(OC)cc3)ccc2OC[C@@H]1C	inactive: 0.978
CC1=CC(C)(C)N(C(=O)Nc2ccc(C)cc2)c2ccccc21	inactive: 0.87
C[C@H](CO)N1C[C@H](C)[C@@H](CN(C)S(C)(=O)=O)Oc2ccc(NS(=O)(=O)c3cccs3)cc2CC1=O	inactive: 1.03
C[C@H]1CN([C@@H](C)CO)C(=O)c2cc(Br)cnc2O[C@H]1CN(C)S(=O)(=O)c1cccs1	inactive: 1.01
Cn1c(=O)[nH]c(=O)c2c1nc(N1CCN(CCO)CC1)n2CC(=O)c1ccccc1	inactive: 0.982
O=C(C[C@H]1C=C[C@H](NC(=O)Cc2ccccn2)[C@@H](CO)O1)NCCCN1CCOCC1	inactive: 0.987
CC(/C=C/C(=O)NO)=C\c1ccccc1OCc1cn(C[C@@H]2CCCN2S(=O)(=O)c2ccc(C)cc2)nn1	inactive: 0.781
C[C@@H]1CN([C@@H](C)CO)C(=O)CCCn2nncc2CO[C@H]1CN(C)S(=O)(=O)c1ccc(Oc2ccccc2)cc1	inactive: 0.99
Cl.Cl.NCCSSCCN	inactive: 0.928
C[C@H]1CN([C@@H](C)CO)C(=O)Cc2cc(NC(=O)Cn3cnnn3)ccc2O[C@@H]1CN(C)S(C)(=O)=O	inactive: 1
COCc1cc(C)[nH]c(=O)c1C#N	inactive: 0.92
Cc1noc(C)c1S(=O)(=O)Nc1ccc2c(c1)CC(=O)N([C@@H](C)CO)C[C@@H](C)[C@@H](CN(C)S(C)(=O)=O)O2	inactive: 0.976
C[C@@H]1CCCCO[C@H](CN(C)CC2CC2)[C@H](C)CN([C@H](C)CO)C(=O)c2cc(NC(=O)C3CCCCC3)ccc2O1	inactive: 1.02
C[C@@H]1CN([C@H](C)CO)C(=O)c2cc(N(C)C)ccc2O[C@@H]1CN(C)S(C)(=O)=O	inactive: 1.02
O=C(O)CN1Cc2ccccc2C1=O	inactive: 1.02
COc1c(O)cc(O)cc1O	inactive: 0.896
COC(=O)C1=C2CC[C@H](CO)NC(=O)N[C@@H](Cc3ccccc3)C(=O)NCc3cn(nn3)C[C@H](Cc3ccccc3)NC(=O)c3oc(c(C(=O)OC)c3C(=O)OC)CC[C@H](CO)NC(=O)N[C@@H](Cc3ccccc3)C(=O)NCc3cn(nn3)C[C@H](Cc3ccccc3)NC(=O)C(=C1C(=O)OC)O2	inactive: 1.02
